Results from the RNAGym collection of RNA variant scans (doi:10.7554/elife.90254).
The source gives no read counts; variants with many changes may rest on few reads.

B1: OR4K15 (parent)
chain: GUUAACGGUCAUAGGCCAUGGAAACUAGGAGCACCAUUUCGCUGCCAGUGAAGAAAUGAACAAAGAAAAUCUGGGCCAGGCAGGCAUCAAAAGAAAUAGUCUUGCGCUCAACCAGAAAGUCUGUAAUCAUUUUAAGGGUA

Variants of: B1
Assay: self-cleavage, relative activity (ratio to wild type); higher = more cleavage; in vitro, sequencing; the parent is a self-cleaving ribozyme

Row | Variant | self-cleavage
1 | GUUAACGGUCAUAGGCCAUGGAAACUAGGAGCACCAUCUCGCUGCCAGUGAAGAAAUGAGCAAAGAAAAUCUGGGCCAGGCAGGCAUCAAAAGAAAUAGUCUUGCGCUCAACCAGAGAGUCUGUAAUCAUUUUAAGGGUA | 1.33
2 | GUUAACGGUCAUAGGCCAUGGAAACUAGGAGCACCAUCUCGCUGCCAGUGAAGAAAUGGACAAAGAAAAUCUGGGCCAGGCAGGCGUCAAAAGAAAUAGUCUUGCGCUCAACCAGAAAGUCUGUAAUCAUUUUAAGGGUA | 1.61
3 | GUUAACGGUCAUAGGCCAUGGAAACUAGGAGCACCAUCUCGCUGCCAGUGAAGAAAUGGACAAAGAAAAUCUGGGCCAGGCAGGCAUCAAAAGAAAUAGUCUUGCGCUCAACCAGAAAGUCCGUAAUCAUUUUAAGGGUA | 1.86
4 | GUUAACGGUCAUAGGCCAUGGAAACUAGGAGCACCAUCUCGCUGCCAGUGAAGAAAUGUACAAAGAAAAUCUGGGCCAGGCAGGCAUCAAAAGAAAUAGCCUUGCGCUCAACCAGAAAGUCUGUAAUCAUUUUAAGGGUA | 2.44
5 | GUUAACGGUCAUAGGCCAUGGAAACUAGGAGCACCAUCUCGCUGCCAGUGAAGAAAUGGACAAAGAAAAUCUGGGCCAGGCAGGCAUCAAAAGAAAUAGUCUUGCGCUCGACCAGAAAGUCUGUAAUCAUUUUAAGGGUA | 0.24
6 | GUUAACGGUCAUAGGCCAUGGAAACUAGGAGCACCAUCUCGCUGCCAGUGAAGAAAUGGACAAAGAAAAUCUGAGCCAGGCAGGCAUCAAAAGAAAUAGUCUUGCGCUCAACCAGAAAGUCUGUAAUCAUUUUAAGGGUA | 0.35
7 | GUUAACGGUCAUAGGCCAUGGAAACUAGGAGCACCAUCUCGCUGCCAGUGAAGAGAUGAACAAAGAAGAUCUGGGCCAGGCAGGCAUCAAAAGAAAUAGUCUUGCGCUCAACCAGAAAUUCUGUAAUCAUUUUAAGGGUA | 1.71
8 | GUUAACGGUCAUAGGCCAUGGAAACUAGGAGCACCAUCUCGCUGCCAGUGAAGAAAUGAGCAAAGAAAAUCUGGGCCAGGCAGGCAUCAGAAGAAAUAGUCUUGCGCUCAACCAGAAAGUCUGUAUUCAUUUUAAGGGUA | 0.31
9 | GUUAACGGUCAUAGGCCAUGGAAACUAGGAGCACCAUCUCGCUGCCAGUGAAGAAAUGAACGAAGAAAAUCUGGGCCAGGCAGGCAUCAAAAGAAAUAGUCUUGCGCUCAACCGGAAAGUCUGUAAUCAUUUUAAGGGUA | 0.32
10 | GUUAACGGUCAUAGGCCAUGGAAACUAGGAGCACCAUCUCGCUGCCAGUGAAGAAGUGAGCAAAGAAUAUCUGGGCCAGGCAGGCAUCAAAAGAAACAGUCUUGCGCUCAACCAGAAAGUCUGUAAUCAUUUUAAGGGUA | 1.11
11 | GUUAACGGUCAUAGGCCAUGGAAACUAGGAGCACCAUCUCGCUGCCAGUGAAGAAAUGAGCAAAGAAAAUCUGGGCCAGGCAGGCAUCAAAAGAAAUAGUCUUGCGCUCAACCAGAAAGUCCGUAAUCAUUCUAAGGGUA | 1
12 | GUUAACGGUCAUAGGCCAUGGAAACUAGGAGCACCAUCUCGCUGCCAGUGAAGAGAUGAACAAAGAAAAUCUGGGCCAGGCAGGCAUCAAAAGAAAUAGUCAUGCGCUCAACCAGAAAGUCUGUAAUCAUUUUAAGGGUA | 0.38
13 | GUUAACGGUCAUAGGCCAUGGAAACUAGGAGCACCAUCUCGCUGCCAGUGAAGAAAUGGACAAAGAAAAUCUGGGCCAGGCAGGCAUCAAAAGAAAUAGUCUAGCGCUAAACCAGAAAGUCUGUAAUCAUUUUAAGGGUA | 0.14
14 | GUUAACGGUCAUAGGCCAUGGAAACUAGGAGCACCAUCUCGCUGCCAGUGAAGAAAUGAACUAAGAAAAUCUGGGCCAGGCAGGCAUCGAAAGAAAUCGUCUUGCGCUCAACCAGAAAGUCUGUAAUCAUUUUAAGGGUA | 2.07
15 | GUUAACGGUCAUAGGCCAUGGAAACUAGGAGCACCAUCUCGCUGCCAGUGAAGAAAUGAGCAAAGAAGAACUGGGCCAGGCAGGCAUCAAAAGAAAUAGUCUUGCGCUCAACCAGAAAGUCUGUAAUCAUUAUAAGGGUA | 0.68
16 | GUUAACGGUCAUAGGCCAUGGAAACUAGGAGCACCAUCUCGCUGCCAGUGAAGAAAUGGACAAAGAAAAGCUGGGCCAGGCAGGCAUCAAAAGAAAUAGUCUUGCGCUCAACCAGAAAGUCUGUAAUCAUUUUAAGGGUA | 0.9
17 | GUUAACGGUCAUAGGCCAUGGAAACUAGGAGCACCAUCUCGCUGCCAGUGAAGAAAUGAACGAAGAAAAUCUGGGCCAGGCAGGCAUCAAAAGAAAUAGUCUUGUGCUCAACCAGAAAGUCUGUAAUCAUUUUAAGGGUA | 0.15
18 | GUUAACGGUCAUAGGCCAUGGAAACUAGGAGCACCAUCUCGCUGCCAGUGAAGAAGUGAACAAGGAGAAUCUGGGCCAGGCAGGCAUCAAAAGAAAUAGUCUUGCGCUCAACCAGAAGGUCUGUAACCAUUUUAAGGGUA | 0.35
19 | GUUAACGGUCAUAGGCCAUGGAAACUAGGAGCACCAUCUCGCUGCCAGUGAAGAAGUGAACUAAGAAAAUCUGGGCCGGGCAGGCAUCAAAAGAAAUAGUCUCGCGCUCAACCAGAAAGUCUGUAAUCAUUUUAAGGGUA | 0.06
20 | GUUAACGGUCAUAGGCCAUGGAAACUAGGAGCACCAUCUCGCUGCCAGUGAAGAAAUGGACAAAGAAAAUCUGGGCCAGGCAGGCAUCAAAAGAAAUAGUCUUGCGCCCAACCAGAAAGUCUGUAAUCAUUUUAAGGGUA | 0.04
21 | GUUAACGGUCAUAGGCCAUGGAAACUAGGAGCACCAUCUCGCUGCCAGUGAAGAAAUGAACGAAGAAAAUCUGGGCCAGGCAGGCAUCAAAAGAAAUAGUCUUGCGCCCAACCAGAAAGUCUGUAAUCAUUUUAAGGGUA | 0.04
